Data from the RNAGym collection of RNA variant scans (doi:10.7554/elife.90254).
Read counts are not given, so values of variants with three or more changes are uncertain.

B1: LINE1-full (parent)
chain: UACGUAGGUGGUUUUCCCCUGAUAGUGCUAAGGGGGCCUGGAAGUUUGGACUGGGCAGAGCUCAACACAGCGUGGCAAAGUGGCUGUGGCUAGACUGCCUCUCUGGAUUCCUCGUCACUCAGCAGGGCAUCUCUGAGAGAAAUGCC

Variants of: B1
Experiment: self-cleavage, relative activity (ratio to wild type); higher = more cleavage; in vitro, sequencing; the parent is a self-cleaving ribozyme

| Variant | self-cleavage |
| --- | --- |
| G35U A50G C95U U119C A121U | 0.14 |
| U39A U109C C113U U134C | 1.52 |
| G40A U81A U115C U119C | 2.21 |
| U39C U52A A65U A77G A141G | 0.35 |
| G36C A64U U143G | 0.34 |
| U39C U87A G105U A117G | 0 |
| G41A U47A U134C | 1.06 |
| C37A A43G U47C U104A | 1.11 |
| G35U A43G A121U U132C A142G | 1.09 |
| C37A A107G A142G | 1.28 |
| C37G A64U U81A U96A U108C | 0.01 |
| G36U U102C U143A | 1.58 |
| U39G U85A U109A A138U | 0.06 |
| C37A G48A A124G A142G | 0.54 |
| G36C A50U U52A | 0.43 |
| U39A U46C U47C | 1.18 |
| U39C A78G G126C | 1.09 |
| G35U A78C A141G | 2.45 |
| U39A A78U A121C U134A | 1.99 |
| U39A C95A U115C U119C | 0.08 |
| U39A A64U A94G | 0.1 |

| Variant | self-cleavage |
| --- | --- |
| U39C U108C A129C | 2.21 |
| G41A G53U U115C | 1.3 |
| U39C A57G A121U A138G | 0.79 |
| C37A U47C A69U U73A A78G U108C | 0 |
| U39A U52C G89A | 0.04 |
| U39C C51U A94G U130A | 0.44 |
| U39C U85C C95U C118U A129U | 0.03 |
| U39C A65C G80A U112C | 0 |
| U39A A69U A94G U108C A136G | 0.18 |
| U39A A69C U81C A138G | 0.39 |
| U39A U115C A136G | 1.75 |
| U39C A92G U134C A140U | 0 |
| U39A A124C A136U A138G | 1.84 |
| G36C U45C G89A C131U | 0.01 |
| U39C A42G U46C | 1.53 |
| C38A U47A U108C | 0.77 |
| U39A U47C U62A U96A | 0.07 |
| G36A A43G U130C A142G | 1.29 |
| G40U A59U U73C A107G | 1.28 |
| G40U A78G A94U | 0.12 |
| G40A U96A U109C | 0 |

| Variant | self-cleavage |
| --- | --- |
| G36A G49A U62C A78G G114U | 0.01 |
| G35U A57U G105U | 0.14 |
| G36U G58A A69G | 0.04 |
| G40A U45C G106U | 0.69 |
| G36A A69U U100C U102A | 0.04 |
| G36A A59G A78G U115A | 0.08 |
| U39A C51U C110U | 1.5 |
| G41A A59G U96C | 0 |
| G36A U104C A141U | 1.33 |
| U39C A77G U115C | 1.84 |
| G35U G74A U87C U132C | 0.08 |
| G40A A64G A69U A140G | 0 |
| U39C U46C A140G | 1.12 |
| U39A U85C G88U U132C | 0.06 |
| G41U A77G A78U U109C A129U | 2.71 |
| C37A A42G A65G U85A | 0 |
| U39A A50U U96C | 0.06 |
| G36U U46C A64U | 0.43 |
| G40A U112C U143C | 1.11 |
| U39C A57G A64G C71U A77G | 0.12 |
| G36A A64U U108C | 0.45 |

| Variant | self-cleavage |
| --- | --- |
| U39A A92G U100A | 0.12 |
| G40U U45A U134C | 1.56 |
| U39C A42G U85A | 0.12 |
| U39A A50U U52C | 1.17 |
| U39A A92G U143A | 0.23 |
| G36U U104A U134C | 0.56 |
| U39C A117U A138G | 1.3 |
| U39G U85C U143A | 0.34 |
| U39A U81C G89C | 0.09 |
| C38G A65U A78G U96C | 0.06 |
| U39C A117G A140G | 1.02 |
| U39G U62C U73A | 0.02 |
| U39A U46A C110U A136G | 1.19 |
| U39C A42G U100C | 1.46 |
| U39G A69G G70A A78G | 0.09 |
| G36C U39A C99A U104C | 0.17 |
| G36U U39A U45C | 1.09 |
| U39C G54A A94U | 0.14 |
| U39A A65G A69U | 0.03 |
| U39A G74A U143A | 1.09 |
